± gives the standard deviation of the averaged measurements. Laboratory Escherichia coli strains with one amino-acid change in an essential protein, pooled on minimal glucose agar with carbenicillin or gentamicin at twice the control MIC (plus kanamycin and chloramphenicol for the plasmids), 48 h. Fold change of barcode share against drug-free plates; higher = less susceptible. Active = above 20 in both replicates (the paper's putatively resistant). '<' = one read or none on drug, '>' = one read or none on a drug-free plate. Shares are relative, so most strains fall below 1 when a few take over. Listed are strains with at least 15 reads on both drug-free plates, and hits; most hits rest on fewer reference reads. Replicate rank correlation about 0.5. Edits are read from barcodes.
B1: hemH; numbered along this chain (parent)
chain: MRQTKTGILLANLGTPDAPTPEAVKRYLKQFLSDRRVVDTSRLLWWPLLRGVILPLRSPRVAKLYASVWMEGGSPLMVYSRQQQQALAQRLPEMPVALGMSYGSPSLESAVDELLAEHVDHIVVLPLYPQFSCSTVGAVWDELARILARKRSIPGISFIRDYADNHDYINALANSVRASFAKHGEPDLLLLSYHGIPQRYADEGDDYPQRCRTTTRELASALGMAPEKVMMTFQSRFGREPWLMPYTDETLKMLGEKGVGHIQVMCPGFAADCLETLEEIAEQNREVFLGAGGKKYEYIPALNATPEHIEMMANLVAAYR
B2: pheT; numbered along this chain (parent)
chain: MKFSELWLREWVNPAIDSDALANQITMAGLEVDGVEPVAGSFHGVVVGEVVECAQHPNADKLRVTKVNVGGDRLLDIVCGAPNCRQGLRVAVATIGAVLPGDFKIKAAKLRGEPSEGMLCSFSELGISDDHSGIIELPADAPIGTDIREYLKLDDNTIEISVTPNRADCLGIIGVARDVAVLNQLPLVQPEIVPVGATIDDTLPITVEAPEACPRYLGRVVKGINVKAPTPLWMKEKLRRCGIRSIDAVVDVTNYVLLELGQPMHAFDKDRIEGGIVVRMAKEGETLVLLDGTEAKLNADTLVIADHNKALAMGGIFGGEHSGVNDETQNVLLECAFFSPLSITGRARRHGLHTDASHRYERGVDPALQHKAMERATRLLIDICGGEAGPVIDITNEATLPKRATITLRRSKLDRLIGHHIADEQVTDILRRLGCEVTEGKDEWQAVAPSWRFDMEIEEDLVEEVARVYGYNNIPDEPVQASLIMGTHREADLSLKRVKTLLNDKGYQEVITYSFVDPKVQQMIHPGVEALLLPSPISVEMSAMRLSLWTGLLATVVYNQNRQQNRVRIFESGLRFVPDTQAPLGIRQDLMLAGVICGNRYEEHWNLAKETVDFYDLKGDLESVLDLTGKLNEVEFRAEANPALHPGQSAAIYLKGERIGFVGVVHPELERKLDLNGRTLVFELEWNKLADRVVPQAREISRFPANRRDIAVVVAENVPAADILSECKKVGVNQVVGVNLFDVYRGKGVAEGYKSLAISLILQDTSRTLEEEEIAATVAKCVEALKERFQASLRD

Variants of: B1
Assay: barcode share on antibiotic plates over drug-free plates; higher = less susceptible
Conditions: with Escherichia coli (laboratory strain); antibiotic: carbenicillin; 2× MIC (3.1 µg/mL)
Experimental: (§1)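 A pool of E. coli strains, each edited to carry one amino-acid change in an essential protein, was grown for 48 h on minimal glucose agar with or without antibiotic; strain barcodes were sequenced; mean of two replicates.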

Variant	fold change of barcode share
L190P	0.485 ± 0.17
L190Q	0.924 ± 0.85
L190W	0.498 ± 0.48
L191A	0.268 ± 0.12
L191D	2.78 ± 0.79
L191P	0.183 ± 0.023
L191Q	0.422 ± 0.0065
L191W	0.462 ± 0.0091
M265A	0.311 ± 0.027
M265D	0.697 ± 0.33
M265Q	0.245 ± 0.057
F269A	0.376 ± 0.2
F269Q	0.328 ± 0.063
F269W	0.305 ± 0.18
V316Q	0.207 ± 0.085

Same assay, conditions: with Escherichia coli (laboratory strain); antibiotic: gentamicin; 2× MIC (MIC 0.45 µg/mL)

Variant	fold change of barcode share
L190P	0.0276 ± 0.03
L190Q	< 0.00477
L190W	< 0.0167
L191A	0.00856 ± 0.0067
L191D	0.079 ± 0.064
L191P	0.013 ± 0.011
L191Q	< 0.00536
L191W	0.00777 ± 0.006
M265A	0.00707 ± 0.0022
M265D	0.00666 ± 0.0022
M265Q	< 0.00519
F269A	0.00801 ± 0.0033
F269Q	0.0147 ± 0.013
F269W	0.0125 ± 0.015
V316Q	< 0.00818
V316W	< 0.0143

Variants of: B2
Assay: as above
Conditions: with Escherichia coli (laboratory strain); antibiotic: carbenicillin; 2× MIC (3.1 µg/mL)
Experimental: as §1

Variant	fold change of barcode share
L217A	0.354 ± 0.0089
L217D	0.425 ± 0.057
L217P	0.225 ± 0.055
L217Q	0.835 ± 0.12
L217W	0.347 ± 0.073
V221Q	0.431 ± 0.051
L257A	0.214 ± 0.011
L257D	0.264 ± 0.12
L257P	0.361 ± 0.037
L257Q	0.4 ± 0.27
L257W	0.231 ± 0.15

Same assay, conditions: with Escherichia coli (laboratory strain); antibiotic: gentamicin; 2× MIC (MIC 0.45 µg/mL)

Variant	fold change of barcode share
L217A	< 0.00134
L217D	0.00442 ± 0.0044
L217P	< 0.0124
L217Q	0.0081 ± 0.0024
L217W	0.00413 ± 0.00058
V221Q	0.0043 ± 0.00027
L257A	< 0.00831
L257D	0.0128 ± 0.0095
L257P	0.00683 ± 0.0024
L257Q	< 0.00735
L257W	< 0.00477

— the supplement of paper PMC11876631
